Test system: MLKL phosphorylation, HT29-L23 human colorectal adenocarcinoma cells
Assay: cells
Conditions: read-out: pMLKL HCS Cell Assay (IC50, uM)

Row | Compound | IC50 [µM]
1 | Cc1cc(C)c(-c2cc(C(F)(F)F)c3c(N)ncnn23)cc1C(=O)N[C@@H]1CN(C(=O)C2CC(F)(F)C2)C[C@@H]1F [Example 537, 5-[4-amino-5-(trifluoromethyl)pyrrolo[2,1-f][1,2,4]triazin-7-yl]-N-[(3R,4S)-1-(3,3-difluorocyclobutanecarbonyl)-4-fluoropyrrolidin-3-yl]-2,4-dimethylbenzamide] | 0.021
2 | Cc1cc(C)c(-c2cc(C(F)(F)F)c3c(N)ncnn23)cc1C(=O)N[C@@H]1CN(C(=O)c2ccc(F)cc2)C[C@@H]1F [Example 538, 5-[4-amino-5-(trifluoromethyl)pyrrolo[2,1-f][1,2,4]triazin-7-yl]-N-[(3R,4S)-4-fluoro-1-(4-fluorobenzoyl)pyrrolidin-3-yl]-2,4-dimethylbenzamide] | 0.037
3 | Cc1cc(C)c(-c2cc(C(F)(F)F)c3c(N)ncnn23)cc1C(=O)N[C@@H]1CN(C(=O)C2CCC(F)(F)CC2)C[C@@H]1F [Example 539, 5-[4-amino-5-(trifluoromethyl)pyrrolo[2,1-f][1,2,4]triazin-7-yl]-N-[(3R,4S)-1-(4,4-difluorocyclohexanecarbonyl)-4-fluoropyrrolidin-3-yl]-2,4-dimethylbenzamide] | 0.055
4 | Cc1cc(C)c(-c2cc(C(F)(F)F)c3c(N)ncnn23)cc1C(=O)N1CCC[C@H](Cc2ccc(F)cc2)C1 [Example 541, 7-{5-[(3R)-3-[(4-fluorophenyl)methyl]piperidine-1-carbonyl]-2,4-dimethylphenyl}-5-(trifluoromethyl)pyrrolo[2,1-f][1,2,4]triazin-4-amine] | 0.404
5 | COc1ncc(-c2c(C#N)cc3c(N)ncnn23)cc1C(=O)N[C@@H]1CN(C(=O)[C@@](C)(O)C(F)(F)F)C[C@@H]1F [Example 542, 5-(4-amino-6-cyanopyrrolo[2,1-f][1,2,4]triazin-7-yl)-N-((3R,4S)-4-fluoro-1-((R)-3,3,3-trifluoro-2-hydroxy-2-methylpropanoyl)pyrrolidin-3-yl)-2-methoxynicotinamide] | 0.058
6 | COc1ncc(-c2c(-c3nnn[nH]3)cc3c(N)ncnn23)cc1C(=O)N[C@@H]1CN(C(=O)[C@@](C)(O)C(F)(F)F)C[C@@H]1F [Example 543, 5-(4-amino-6-(1H-tetrazol-5-yl)pyrrolo[2,1-f][1,2,4]triazin-7-yl)-N-((3R,4S)-4-fluoro-1-((R)-3,3,3-trifluoro-2-hydroxy-2-methylpropanoyl)pyrrolidin-3-yl)-2-methoxynicotinamide] | 6.25
7 | COc1ncc(-c2c(-c3nnnn3C)cc3c(N)ncnn23)cc1C(=O)N[C@@H]1CN(C(=O)[C@@](C)(O)C(F)(F)F)C[C@@H]1F [Example 544, 5-(4-amino-6-(1-methyl-1H-tetrazol-5-yl)pyrrolo[2,1-f][1,2,4]triazin-7-yl)-N-((3R,4S)-4-fluoro-1-((R)-3,3,3-trifluoro-2-hydroxy-2-methylpropanoyl)pyrrolidin-3-yl)-2-methoxynicotinamide] | 5.67
8 | COc1ncc(-c2c(-c3nnn(C)n3)cc3c(N)ncnn23)cc1C(=O)N[C@@H]1CN(C(=O)[C@@](C)(O)C(F)(F)F)C[C@@H]1F [Example 545, 5-(4-amino-6-(2-methyl-2H-tetrazol-5-yl)pyrrolo[2,1-f][1,2,4]triazin-7-yl)-N-((3R,4S)-4-fluoro-1-((R)-3,3,3-trifluoro-2-hydroxy-2-methylpropanoyl)pyrrolidin-3-yl)-2-methoxynicotinamide] | 0.33
9 | COc1ncc(-c2c(C#N)cc3c(N)ncnn23)cc1C(=O)NCC[C@H](O)c1ccc(Cl)cc1 [Example 546, (S)-5-(4-amino-6-cyanopyrrolo[2,1-f][1,2,4]triazin-7-yl)-N-(3-(4-chlorophenyl)-3-hydroxypropyl)-2-methoxynicotinamide] | 0.107
10 | COc1ncc(-c2c(C#N)cc3c(N)ncnn23)cc1C(=O)NCC[C@@H](O)c1ccc(Cl)cc1 [Example 547, (R)-5-(4-amino-6-cyanopyrrolo[2,1-f][1,2,4]triazin-7-yl)-N-(3-(4-chlorophenyl)-3-hydroxypropyl)-2-methoxynicotinamide] | 0.095
11 | COc1ncc(-c2c(C#N)cc3c(N)ncnn23)cc1C(=O)N[C@H](C)c1cc(OC(F)(F)F)ccc1F [Example 548, (R)-5-(4-amino-6-cyanopyrrolo[2,1-f][1,2,4]triazin-7-yl)-N-(1-(2-fluoro-5-(trifluoromethoxy)phenyl)ethyl)-2-methoxynicotinamide] | 0.091
12 | COc1ncc(-c2c(C#N)cc3c(N)ncnn23)cc1C(=O)N[C@H](C)c1cc(C(F)(F)F)ccc1F [Example 549, (R)-5-(4-amino-6-cyanopyrrolo[2,1-f][1,2,4]triazin-7-yl)-N-(1-(2-fluoro-5-(trifluoromethyl)phenyl)ethyl)-2-methoxynicotinamide] | 0.018
13 | COc1ncc(-c2c(C#N)cc3c(N)ncnn23)cc1C(=O)Nc1cnn(Cc2ccccc2)c1 [Example 550, 5-(4-amino-6-cyanopyrrolo[2,1-f][1,2,4]triazin-7-yl)-N-(1-benzyl-1H-pyrazol-4-yl)-2-methoxynicotinamide] | 0.00085
14 | COc1ncc(-c2c(C#N)cc3c(N)ncnn23)cc1C(=O)N[C@@H]1CN(C(=O)C2CC2(F)F)C[C@@H]1F (stereo partly drawn) [Example 551, 5-(4-amino-6-cyanopyrrolo[2,1-f][1,2,4]triazin-7-yl)-N-((3R,4S)-1-(2,2-difluorocyclopropane-1-carbonyl)-4-fluoropyrrolidin-3-yl)-2-methoxynicotinamide] | 0.532
15 | COc1ncc(-c2c(C#N)cc3c(N)ncnn23)cc1C(=O)N[C@@H]1CN(C(=O)C2CC(F)(F)C2)C[C@@H]1F [Example 552, 5-(4-amino-6-cyanopyrrolo[2,1-f][1,2,4]triazin-7-yl)-N-((3R,4S)-1-(3,3-difluorocyclobutane-1-carbonyl)-4-fluoropyrrolidin-3-yl)-2-methoxynicotinamide] | 0.369
16 | COc1ncc(-c2c(C#N)cc3c(N)ncnn23)cc1C(=O)N[C@@H]1CN(C(=O)C2CCC(F)(F)C2)C[C@@H]1F (stereo partly drawn) [Example 553, 5-(4-amino-6-cyanopyrrolo[2,1-f][1,2,4]triazin-7-yl)-N-((3R,4S)-1-(3,3-difluorocyclopentane-1-carbonyl)-4-fluoropyrrolidin-3-yl)-2-methoxynicotinamide] | 0.943
17 | COc1ncc(-c2c(C#N)cc3c(N)ncnn23)cc1C(=O)N[C@@H]1CN(C(=O)C2(C(F)(F)F)CC2)C[C@@H]1F [Example 554, 5-(4-amino-6-cyanopyrrolo[2,1-f][1,2,4]triazin-7-yl)-N-((3R,4S)-4-fluoro-1-(1-(trifluoromethyl)cyclopropane-1-carbonyl)pyrrolidin-3-yl)-2-methoxynicotinamide] | 0.11
18 | COc1ncc(-c2c(C#N)cc3c(N)ncnn23)cc1C(=O)N[C@@H]1CN(C(=O)C2CCC(F)(F)CC2)C[C@@H]1F [Example 555, 5-(4-amino-6-cyanopyrrolo[2,1-f][1,2,4]triazin-7-yl)-N-((3R,4S)-1-(4,4-difluorocyclohexane-1-carbonyl)-4-fluoropyrrolidin-3-yl)-2-methoxynicotinamide] | 1.54
19 | COc1ncc(-c2c(C#N)cc3c(N)ncnn23)cc1C(=O)N[C@@H]1CN(C(=O)C2CCC(O)(C(F)(F)F)CC2)C[C@@H]1F (stereo partly drawn) [Example 558, 5-(4-amino-6-cyanopyrrolo[2,1-f][1,2,4]triazin-7-yl)-N-((3R,4S)-4-fluoro-1-(4-hydroxy-4-(trifluoromethyl)cyclohexane-1-carbonyl)pyrrolidin-3-yl)-2-methoxynicotinamide] | 6.25
20 | COc1ncc(-c2c(C#N)cc3c(N)ncnn23)cc1C(=O)N[C@@H]1CN(C(=O)C2CC(O)(C(F)(F)F)C2)C[C@@H]1F (stereo partly drawn) [Example 559, 5-(4-amino-6-cyanopyrrolo[2,1-f][1,2,4]triazin-7-yl)-N-((3R,4S)-4-fluoro-1-(3-hydroxy-3-(trifluoromethyl)cyclobutane-1-carbonyl)pyrrolidin-3-yl)-2-methoxynicotinamide] | 4.45
21 | COc1ncc(-c2c(C#N)cc3c(N)ncnn23)cc1C(=O)N[C@@H]1CN(C(=O)C(C)(C)C(F)(F)F)C[C@@H]1F [Example 560, 5-(4-amino-6-cyanopyrrolo[2,1-f][1,2,4]triazin-7-yl)-N-((3R,4S)-4-fluoro-1-(3,3,3-trifluoro-2,2-dimethylpropanoyl)pyrrolidin-3-yl)-2-methoxynicotinamide] | 0.219
22 | COc1ncc(-c2c(C#N)cc3c(N)ncnn23)cc1C(=O)N[C@@H]1CN(C(=O)C(C)(C)F)C[C@@H]1F [Example 561, 5-(4-amino-6-cyanopyrrolo[2,1-f][1,2,4]triazin-7-yl)-N-((3R,4S)-4-fluoro-1-(2-fluoro-2-methylpropanoyl)pyrrolidin-3-yl)-2-methoxynicotinamide] | 0.271
23 | Cc1c(F)cc(-c2cc(C(F)(F)F)c3c(N)ncnn23)cc1C(=O)N[C@@H]1CN(C(=O)CC(O)(C(F)(F)F)C(F)(F)F)C[C@@H]1F [Example 562, 5-(4-amino-5-(trifluoromethyl)pyrrolo[2,1-f][1,2,4]triazin-7-yl)-3-fluoro-N-((3R,4S)-4-fluoro-1-(4,4,4-trifluoro-3-hydroxy-3-(trifluoromethyl)butanoyl)pyrrolidin-3-yl)-2-methylbenzamide] | 0.001
24 | COc1ncc(-c2cc(C(F)(F)F)c3c(N)ncnn23)cc1C(=O)NC1CN(C(=O)[C@@](C)(O)C(F)(F)F)CC1(F)F (stereo partly drawn) [Example 563, 5-(4-amino-5-(trifluoromethyl)pyrrolo[2,1-f][1,2,4]triazin-7-yl)-N-(4,4-difluoro-1-((R)-3,3,3-trifluoro-2-hydroxy-2-methylpropanoyl)pyrrolidin-3-yl)-2-methoxynicotinamide] | 0.033
25 | C[C@@](O)(C(=O)Nc1ncnn2c(-c3cc(F)c(Cl)c(C(=O)N[C@@H]4CN(C(=O)[C@@](C)(O)C(F)(F)F)C[C@@H]4F)c3)cc(C(F)(F)F)c12)C(F)(F)F [Example 564, 2-chloro-3-fluoro-N-((3R,4S)-4-fluoro-1-((R)-3,3,3-trifluoro-2-hydroxy-2-methylpropanoyl)pyrrolidin-3-yl)-5-(4-((R)-3,3,3-trifluoro-2-hydroxy-2-methylpropanamido)-5-(trifluoromethyl)pyrrolo[2,1-f][1,2,4]triazin-7-yl)benzamide] | 0.039

— patent US11618753B2 (priority 2018, dated 2023)
